The list shows a part of the results. The energies were worked out here from pooled read counts, against the library average; single values are noisy.

The experiment concerns the target T1, Pho4 (S. cerevisiae) (UniProt P07270).
T1 sequence: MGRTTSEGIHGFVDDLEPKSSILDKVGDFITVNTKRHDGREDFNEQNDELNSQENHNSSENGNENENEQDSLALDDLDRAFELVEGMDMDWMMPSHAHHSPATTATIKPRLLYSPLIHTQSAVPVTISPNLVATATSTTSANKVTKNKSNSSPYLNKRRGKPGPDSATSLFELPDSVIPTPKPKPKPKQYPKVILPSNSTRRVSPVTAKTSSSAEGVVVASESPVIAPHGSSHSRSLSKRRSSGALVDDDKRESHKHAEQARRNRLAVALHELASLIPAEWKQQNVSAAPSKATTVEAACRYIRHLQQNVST
As to the kind of experiment: relative binding free energy (BET-seq); higher = weaker binding. To be noted: reference: library average.
In the case of GATTGCACGTGCGTGG, the “relative binding free energy” value turned out to be 0.02 kcal/mol. In the case of GTGTTCACGTGCGGGC, the “relative binding free energy” value worked out at 0.29 kcal/mol. On to AGGATCACGTGTAAGA, for which the “relative binding free energy” value is 0.36 kcal/mol. With TAGAGCACGTGGGTTG, the “relative binding free energy” value is -0.13 kcal/mol. Take GTGTACACGTGAAGTG: the “relative binding free energy” value stood at 0.43 kcal/mol. For the sequence GGTCGCACGTGTGGGC, the “relative binding free energy” value is 0.06 kcal/mol.

As to GTTGACACGTGTTTTA, the “relative binding free energy” value is 0.15 kcal/mol. Next, GGTGACACGTGAGAGT: 0.16 kcal/mol; AGTAACACGTGCTATG: 0.02 kcal/mol; TGGGGCACGTGTTGTT: -0.08 kcal/mol. On to CTTGACACGTGTTAAG, for which the “relative binding free energy” value turned out to be 0.04 kcal/mol. Turning to ATAGGCACGTGGAGAG, the “relative binding free energy” value was -0.17 kcal/mol. For the sequence TGTGACACGTGTGGGA, the “relative binding free energy” value amounted to 0.07 kcal/mol. Consider CTATTCACGTGAGGGG, for which the “relative binding free energy” value is 0.24 kcal/mol. As for ATGATCACGTGTGGTG, the “relative binding free energy” value turned out to be 0.16 kcal/mol. Take GTTGCCACGTGTCGTG: the “relative binding free energy” value came out at 0.08 kcal/mol.

Turning to CGGTGCACGTGTGGCA, the “relative binding free energy” value is 0.12 kcal/mol.

Consider TACTGCACGTGGAGTT, for which the “relative binding free energy” value is -0.07 kcal/mol. For GAGTGCACGTGAGTAG, the “relative binding free energy” value was determined as 0.29 kcal/mol.

Turning to GAATACACGTGTTAGG, the “relative binding free energy” value was -0.01 kcal/mol.

For CTTTTCACGTGGAGTT, the “relative binding free energy” value was 0.21 kcal/mol. CTTTTCACGTGTTGAA: the “relative binding free energy” value stood at 0.32 kcal/mol. As to GTTCGCACGTGTGAGG, the “relative binding free energy” value is 0.04 kcal/mol. Take TATGACACGTGGAAGA: the “relative binding free energy” value worked out at 0.12 kcal/mol.

As to CGGATCACGTGGTAGA, the “relative binding free energy” value stood at 0.22 kcal/mol.

GTATTCACGTGATGAG: the “relative binding free energy” value was found to be 0.32 kcal/mol. ACAGTCACGTGGAGGT: the “relative binding free energy” value was 0.06 kcal/mol. Regarding TTGTTCACGTGTCGCG, the “relative binding free energy” value turned out to be 0.28 kcal/mol. As to ATTTACACGTGTGCTT, the “relative binding free energy” value stood at 0.12 kcal/mol. ATTATCACGTGCTTGG: the “relative binding free energy” value worked out at 0.08 kcal/mol.

Consider GGCTACACGTGGAGTT, for which the “relative binding free energy” value came to 0.19 kcal/mol.

CTTTACACGTGTTGCT: the “relative binding free energy” value was found to be 0.07 kcal/mol. Turning to CTGTGCACGTGTGGCA, the “relative binding free energy” value is 0 kcal/mol. CTAGGCACGTGTATGT: the “relative binding free energy” value is -0.23 kcal/mol. Take AAGGGCACGTGGTTAA: the “relative binding free energy” value stood at 0 kcal/mol. Next, AATGGCACGTGGAGTA: -0.28 kcal/mol; GCCGGCACGTGGAGGT: -0.07 kcal/mol; GTTTTCACGTGTGTGA: 0.39 kcal/mol. Next, TGTATCACGTGGAAAT: 0.13 kcal/mol; AGAGGCACGTGGGTTT: -0.13 kcal/mol; GTTATCACGTGATCTT: 0.27 kcal/mol. With GTCGGCACGTGGGTTC, the “relative binding free energy” value was -0.19 kcal/mol. Take CTGTTCACGTGGAGGA: the “relative binding free energy” value worked out at 0.21 kcal/mol. TATGTCACGTGTGAAA: the “relative binding free energy” value was 0.09 kcal/mol. Next, ATCTGCACGTGTTGAG: 0.01 kcal/mol; TAGTTCACGTGATGCT: 0.17 kcal/mol; GGTTCCACGTGAGGGG: 0.31 kcal/mol. As for AAATTCACGTGTTTAG, the “relative binding free energy” value came out at 0.2 kcal/mol. Regarding CTTTGCACGTGTGTTT, the “relative binding free energy” value is -0.02 kcal/mol. On to TGCGGCACGTGCGGTC, for which the “relative binding free energy” value was -0.04 kcal/mol. With GACTGCACGTGGTCGG, the “relative binding free energy” value was -0.03 kcal/mol. Turning to GTATTCACGTGAGTCG, the “relative binding free energy” value is 0.38 kcal/mol.

As to TTACTCACGTGCTGGG, the “relative binding free energy” value was determined as 0.14 kcal/mol. With ATTGGCACGTGTATTC, the “relative binding free energy” value is -0.03 kcal/mol. Next, TTGATCACGTGATTTG: 0.18 kcal/mol; GTATCCACGTGTGGTT: 0.14 kcal/mol; TGAAGCACGTGAATTG: 0.27 kcal/mol. With GTTTCCACGTGAATGT, the “relative binding free energy” value turned out to be 0.36 kcal/mol. Consider TAATTCACGTGGTCTT, for which the “relative binding free energy” value was found to be 0.22 kcal/mol. Next, GTTTACACGTGATTCA: 0.26 kcal/mol. Turning to AGTTGCACGTGCTGTT, the “relative binding free energy” value was -0.06 kcal/mol.

As to TTCGTCACGTGTGGAT, the “relative binding free energy” value was found to be 0.16 kcal/mol. Take GGGGACACGTGTTGTA: the “relative binding free energy” value worked out at 0.19 kcal/mol.

GTGCTCACGTGTTTTG: the “relative binding free energy” value is 0.16 kcal/mol.

For the sequence AAGGACACGTGTATAT, the “relative binding free energy” value amounted to 0.1 kcal/mol. In the case of GTACGCACGTGGGTGA, the “relative binding free energy” value is -0.21 kcal/mol. Regarding GGCCGCACGTGAGTGT, the “relative binding free energy” value came to 0 kcal/mol. Next, AACGTCACGTGTTAGT: 0.14 kcal/mol; CGGAACACGTGTGGGG: 0.01 kcal/mol. As for TGAGTCACGTGATCTG, the “relative binding free energy” value was 0.15 kcal/mol. Next, GGGGTCACGTGTCAGC: 0.24 kcal/mol. Take ATTTTCACGTGTTACG: the “relative binding free energy” value was found to be 0.3 kcal/mol. Regarding TAAGGCACGTGGGACG, the “relative binding free energy” value was -0.14 kcal/mol. Take TTTTGCACGTGTTGCA: the “relative binding free energy” value was -0.06 kcal/mol.

With TGTGTCACGTGGTTGG, the “relative binding free energy” value was found to be 0.05 kcal/mol. As for TATTACACGTGAGGAG, the “relative binding free energy” value was determined as 0.27 kcal/mol. As for CGAGGCACGTGCGAGG, the “relative binding free energy” value is -0.12 kcal/mol. For the sequence GCACTCACGTGGTTGG, the “relative binding free energy” value is 0.34 kcal/mol.

On to GTTCGCACGTGGGCTT, for which the “relative binding free energy” value was -0.07 kcal/mol.

AGTGGCACGTGTTTAA: the “relative binding free energy” value was -0.06 kcal/mol. For GGGTGCACGTGAAGTG, the “relative binding free energy” value is 0.36 kcal/mol. Next, GCTGGCACGTGAAGTT: 0.13 kcal/mol; AGGTACACGTGGCGAT: 0.03 kcal/mol. In the case of ATCTGCACGTGGTGCA, the “relative binding free energy” value stood at 0.05 kcal/mol. On to ATTGGCACGTGACTAG, for which the “relative binding free energy” value is -0.03 kcal/mol. Take GGGTACACGTGGGCAA: the “relative binding free energy” value amounted to 0.04 kcal/mol. For GCAGGCACGTGGAGGC, the “relative binding free energy” value is -0.14 kcal/mol. For GAAAGCACGTGGCGTG, the “relative binding free energy” value is -0.1 kcal/mol. Regarding GTTGACACGTGATGGC, the “relative binding free energy” value was 0.17 kcal/mol. As to GGGGCCACGTGGAGGA, the “relative binding free energy” value was -0.04 kcal/mol. Next, TACTGCACGTGGGGGG: -0.08 kcal/mol. Regarding TTTTACACGTGAGTGA, the “relative binding free energy” value is 0.32 kcal/mol. Regarding ATGTGCACGTGTCGTC, the “relative binding free energy” value was -0.02 kcal/mol.

Take GGGTGCACGTGTAAAT: the “relative binding free energy” value turned out to be 0.22 kcal/mol. In the case of TAATCCACGTGGGGGT, the “relative binding free energy” value was -0.16 kcal/mol. GTCGTCACGTGTAATT: the “relative binding free energy” value was 0.21 kcal/mol. Turning to GTAGACACGTGGAAAT, the “relative binding free energy” value came out at 0.31 kcal/mol.

Regarding CAAGTCACGTGTGGGA, the “relative binding free energy” value was 0.22 kcal/mol.

For AATAGCACGTGTGTTA, the “relative binding free energy” value was -0.17 kcal/mol. In the case of CTGGTCACGTGCGGTA, the “relative binding free energy” value is 0 kcal/mol. As for GAATGCACGTGGTGGA, the “relative binding free energy” value was 0.13 kcal/mol. As to TGTGTCACGTGGCTGG, the “relative binding free energy” value turned out to be 0.02 kcal/mol. As for TTGTGCACGTGGTAGA, the “relative binding free energy” value came to 0.04 kcal/mol. Take GTGCGCACGTGGGTTA: the “relative binding free energy” value was -0.13 kcal/mol. Consider ATTGTCACGTGTCATG, for which the “relative binding free energy” value is -0.01 kcal/mol.

Consider GATGACACGTGGCGTG, for which the “relative binding free energy” value came out at 0 kcal/mol. On to CTGGTCACGTGTGTAG, for which the “relative binding free energy” value was 0.12 kcal/mol.

With GTTAGCACGTGTCGAG, the “relative binding free energy” value is -0.02 kcal/mol. As to GAGGGCACGTGTGCAG, the “relative binding free energy” value is -0.04 kcal/mol.

In the case of AGTTGCACGTGGGGCG, the “relative binding free energy” value is -0.1 kcal/mol. Take GATCGCACGTGTGGGA: the “relative binding free energy” value was found to be 0.09 kcal/mol. TATGACACGTGTAATT: the “relative binding free energy” value came to 0.16 kcal/mol. With CAAGTCACGTGTAGGT, the “relative binding free energy” value came out at 0.12 kcal/mol.

On to TTTAGCACGTGTGGCG, for which the “relative binding free energy” value was 0.04 kcal/mol. For TAGAACACGTGCTGGT, the “relative binding free energy” value is -0.02 kcal/mol.
